Results are given in words; binding and its absence hold for the method and conditions named. Binding seen in cells or lysates may run through a third protein. Some results given as binding are weak or reduced against the parent protein; the word gives no strength. Tags and fused reporters may be left off the sequences shown.
Experiments:
YFP-S100A11 ΔCTM = molecular target: T1, YFP-S100A11 ΔCTM (UniProt P31949); assay: co-IP; lysates of S100A11-KO EA.hy926 cells transfected with empty GFP vector, YFP-S100A11, YFP-S100A11 ΔCTM or YFP-S100A11 CM; GFP Selector beads; 2 mM Ca2+; endogenous ANXA1 and ANXA2 detected by immunoblot
T1 sequence: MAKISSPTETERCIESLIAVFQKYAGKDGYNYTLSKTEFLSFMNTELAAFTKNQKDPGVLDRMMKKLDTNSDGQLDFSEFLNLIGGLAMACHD

The chains behind the UniProt entries cited, without tags or fusion partners.
UniProt P07355: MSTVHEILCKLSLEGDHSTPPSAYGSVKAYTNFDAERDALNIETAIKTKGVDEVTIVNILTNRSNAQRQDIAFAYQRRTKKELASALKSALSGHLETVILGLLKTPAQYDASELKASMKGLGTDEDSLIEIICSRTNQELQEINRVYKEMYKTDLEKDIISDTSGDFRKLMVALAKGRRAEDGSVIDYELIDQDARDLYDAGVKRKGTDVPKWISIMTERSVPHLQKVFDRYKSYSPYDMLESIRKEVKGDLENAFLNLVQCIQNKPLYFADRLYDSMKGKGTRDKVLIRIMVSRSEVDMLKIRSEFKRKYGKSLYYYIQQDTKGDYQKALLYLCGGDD

YFP-S100A11 CM = molecular target: T2, YFP-S100A11 CM (UniProt P31949); assay: as above
T2 sequence: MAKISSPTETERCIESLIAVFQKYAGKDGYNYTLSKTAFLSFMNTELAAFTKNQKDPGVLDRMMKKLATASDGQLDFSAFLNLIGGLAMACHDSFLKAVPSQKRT

YFP-S100A11 [1] = molecular target: T3, YFP-S100A11 (UniProt P31949); assay: as above
T3 sequence: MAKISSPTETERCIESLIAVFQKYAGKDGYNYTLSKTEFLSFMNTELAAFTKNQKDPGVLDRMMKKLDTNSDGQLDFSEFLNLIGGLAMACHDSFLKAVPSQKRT

YFP-S100A11 [2] = molecular target: T3, YFP-S100A11; assay: co-IP; lysates of HUVEC expressing YFP-S100A11 (GFP or non-transfected as controls); GFP Selector beads; 2 mM CaCl2 in the wash buffer (250 mM sucrose, 20 mM HEPES pH 7.5, 0.5 mM EDTA), 1 h at 4°C; endogenous partners detected by immunoblot
YFP-S100A11 [3] = molecular target: T3, YFP-S100A11; assay: as above; remark: listed apart in the source

In the case of “annexin A2 (ANXA2) (from UniProt P07355 1-339)”, the binding (YFP-S100A11 ΔCTM) is reported as “no binding”, the binding (YFP-S100A11 CM) is reported as “no binding” and the binding (YFP-S100A11 [1]) is reported as “binds”. The binding (YFP-S100A11 [2]) was “binds”.

B1: extended synaptotagmin 1 (E-Syt1) (protein, UniProt Q9BSJ8 1-1104)
chain: MERSPGEGPSPSPMDQPSAPSDPTDQPPAAHAKPDPGSGGQPAGPGAAGEALAVLTSFGRRLLVLIPVYLAGAVGLSVGFVLFGLALYLGWRRVRDEKERSLRAARQLLDDEEQLTAKTLYMSHRELPAWVSFPDVEKAEWLNKIVAQVWPFLGQYMEKLLAETVAPAVRGSNPHLQTFTFTRVELGEKPLRIIGVKVHPGQRKEQILLDLNISYVGDVQIDVEVKKYFCKAGVKGMQLHGVLRVILEPLIGDLPFVGAVSMFFIRRPTLDINWTGMTNLLDIPGLSSLSDTMIMDSIAAFLVLPNRLLVPLVPDLQDVAQLRSPLPRGIIRIHLLAARGLSSKDKYVKGLIEGKSDPYALVRLGTQTFCSRVIDEELNPQWGETYEVMVHEVPGQEIEVEVFDKDPDKDDFLGRMKLDVGKVLQASVLDDWFPLQGGQGQVHLRLEWLSLLSDAEKLEQVLQWNWGVSSRPDPPSAAILVVYLDRAQDLPLKKGNKEPNPMVQLSIQDVTQESKAVYSTNCPVWEEAFRFFLQDPQSQELDVQVKDDSRALTLGALTLPLARLLTAPELILDQWFQLSSSGPNSRLYMKLVMRILYLDSSEICFPTVPGCPGAWDVDSENPQRGSSVDAPPRPCHTTPDSQFGTEHVLRIHVLEAQDLIAKDRFLGGLVKGKSDPYVKLKLAGRSFRSHVVREDLNPRWNEVFEVIVTSVPGQELEVEVFDKDLDKDDFLGRCKVRLTTVLNSGFLDEWLTLEDVPSGRLHLRLERLTPRPTAAELEEVLQVNSLIQTQKSAELAAALLSIYMERAEDLPLRKGTKHLSPYATLTVGDSSHKTKTISQTSAPVWDESASFLIRKPHTESLELQVRGEGTGVLGSLSLPLSELLVADQLCLDRWFTLSSGQGQVLLRAQLGILVSQHSGVEAHSHSYSHSSSSLSEEPELSGGPPHITSSAPELRQRLTHVDSPLEAPAGPLGQVKLTLWYYSEERKLVSIVHGCRSLRQNGRDPPDPYVSLLLLPDKNRGTKRRTSQKKRTLSPEFNERFEWELPLDEAQRRKLDVSVKSNSSFMSRERELLGKVQLDLAETDLSQGVARWYDLMDNKDKGSS
With B1 the binding (YFP-S100A11 [3]) was “binds weakly”.

B2: annexin A6 (ANXA6) (protein, UniProt P08133 1-673)
chain: MAKPAQGAKYRGSIHDFPGFDPNQDAEALYTAMKGFGSDKEAILDIITSRSNRQRQEVCQSYKSLYGKDLIADLKYELTGKFERLIVGLMRPPAYCDAKEIKDAISGIGTDEKCLIEILASRTNEQMHQLVAAYKDAYERDLEADIIGDTSGHFQKMLVVLLQGTREEDDVVSEDLVQQDVQDLYEAGELKWGTDEAQFIYILGNRSKQHLRLVFDEYLKTTGKPIEASIRGELSGDFEKLMLAVVKCIRSTPEYFAERLFKAMKGLGTRDNTLIRIMVSRSELDMLDIREIFRTKYEKSLYSMIKNDTSGEYKKTLLKLSGGDDDAAGQFFPEAAQVAYQMWELSAVARVELKGTVRPANDFNPDADAKALRKAMKGLGTDEDTIIDIITHRSNVQRQQIRQTFKSHFGRDLMTDLKSEISGDLARLILGLMMPPAHYDAKQLKKAMEGAGTDEKALIEILATRTNAEIRAINEAYKEDYHKSLEDALSSDTSGHFRRILISLATGHREEGGENLDQAREDAQVAAEILEIADTPSGDKTSLETRFMTILCTRSYPHLRRVFQEFIKMTNYDVEHTIKKEMSGDVRDAFVAIVQSVKNKPLFFADKLYKSMKGAGTDEKTLTRIMVSRSEIDLLNIRREFIEKYDKSLHQAIEGDTSGDFLKALLALCGGED
With B2 the binding (YFP-S100A11 [3]) was “no binding”.

From article PMC9527316
